Source: a collection of fitness landscapes (doi:10.1016/j.celrep.2020.107928)
The full ranking holds about 81,000 sequences; the median of “one-hybrid fitness for binding NBS DNA” is about -0.1, and the highest 2% start at about 0.36. Some of the results follow.

B1: Caulobacter ParB omega fusion; a variant is named by its letters at X, in order, B8GW30 (parent)
chain: MESVVVGEPGMSEGRRGLGRGLSALLGEVDAAPAQAPGEQLGGSREAPIEILQRNPDQPRRTFREEDLEDLSNSIREKGVLQPILVRPSPDTAGEYQIVAGERAWRAAQRAGLKTVPIMVRELDDLAVLEIGIIENVQRADLNVLEEALSYKVLMEKFERTQENIAQTIGKSXSHVANXMRLLXLPDEVQSYLVSGELTAXHARAIAAAADPVALAKQIIEGGLSVRETEALARKAPNLSAGKSKGGRPPRVKDTDTQALESDLSSVLGLDVSIDHRGSTGTLTITYATLEQLDDLCNRLTRGI

Variants of: B1
Experiment: one-hybrid fitness for binding NBS DNA (the Noc-binding site; scaled: cognate 1, non-cognate 0); higher = stronger binding
Details: with NBS DNA site
Procedure, shortened: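 Fitness is the rescaled log change in variant-to-wild-type read ratio, measured by Illumina sequencing of plasmids before and after bacterial one-hybrid selection. The scale puts cognate at 1 and non-cognate at 0. Selection of Caulobacter ParB libraries, four specificity codons randomised, took place in E. coli USO with a HIS3 reporter, site 19 bp from the promoter, over 48 hours at 37°C on M9-minus-histidine with 0.1 mM IPTG and 5 mM 3-AT.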

Variant | one-hybrid fitness for binding NBS DNA
NQKL | ≤ 0.2
ARKN | ≤ 0.2
LTWG | ≤ 0.2
SEQG | ≤ 0.2
QMFD | ≤ 0.2
APQR | ≤ 0.2
MLGI | ≤ 0.2
RVIE | ≤ 0.2
HPKL | ≤ 0.2
WDVT | ≤ 0.2
SPHN | ≤ 0.2
WDVR | ≤ 0.2
KLRA | ≤ 0.2
NPRY | ≤ 0.2
QMQY | 0.223
VYLY | ≤ 0.2
GSRA | ≤ 0.2
PNRM | ≤ 0.2
IDMW | ≤ 0.2
LVSP | ≤ 0.2
DRRI | ≤ 0.2
NART | ≤ 0.2
CISN | ≤ 0.2
VRWH | ≤ 0.2
SVPL | ≤ 0.2

Variant | one-hybrid fitness for binding NBS DNA
INKR | ≤ 0.2
KAMS | ≤ 0.2
SSSM | ≤ 0.2
EHVV | ≤ 0.2
VMNY | ≤ 0.2
PQTV | ≤ 0.2
ADVI | ≤ 0.2
QHWA | ≤ 0.2
ITGT | ≤ 0.2
CPKS | ≤ 0.2
LRNY | ≤ 0.2
ITCT | ≤ 0.2
NCAT | ≤ 0.2
KWVD | ≤ 0.2
RVLR | 0.289
RLFY | ≤ 0.2
AWGS | ≤ 0.2
ETPV | ≤ 0.2
AYAA | ≤ 0.2
DNAL | ≤ 0.2
NRCR | ≤ 0.2
HSTS | ≤ 0.2
LFNN | ≤ 0.2
FLVT | ≤ 0.2
NVYL | ≤ 0.2

Variant | one-hybrid fitness for binding NBS DNA
STDC | ≤ 0.2
KRKE | ≤ 0.2
KVPA | ≤ 0.2
RSAS | 0.424
LDTN | ≤ 0.2
SCKH | ≤ 0.2
GAHV | ≤ 0.2
MRNT | 0.204
FIFV | ≤ 0.2
WTRM | ≤ 0.2
SQSI | ≤ 0.2
TRWH | ≤ 0.2
HDRM | ≤ 0.2
VWTV | ≤ 0.2
ELNA | ≤ 0.2
TYTN | ≤ 0.2
SILL | ≤ 0.2
PHPI | ≤ 0.2
RVVP | ≤ 0.2
NPRR | ≤ 0.2
TVAL | ≤ 0.2
MSCK | ≤ 0.2
TMFC | ≤ 0.2
ERFT | ≤ 0.2
ADAE | ≤ 0.2

Variant | one-hybrid fitness for binding NBS DNA
HPNM | ≤ 0.2
YSNR | ≤ 0.2
NSLE | ≤ 0.2
RSMG | ≤ 0.2
VAVC | ≤ 0.2
KDTE | ≤ 0.2
PFHH | ≤ 0.2
WAQR | ≤ 0.2
HARF | ≤ 0.2
IEVR | ≤ 0.2
DSKY | ≤ 0.2
KERR | ≤ 0.2
RGMG | ≤ 0.2
WMMR | ≤ 0.2
YCRH | ≤ 0.2
QLDP | ≤ 0.2
EIKR | ≤ 0.2
LCNH | ≤ 0.2
YVRR | ≤ 0.2
RSHN | ≤ 0.2
NSPS | ≤ 0.2
GTGG | ≤ 0.2
RCMN | ≤ 0.2
